# This is one part of the list. Shown are side measurements of this screen, not its main read-out; they come without a call.
# Tests used:
# Assay in all cases: Primary Screen for Target Class Profiling of Small Molecule Inhibitors of Methyltransferases
# [1] = biological target: Glycine N-methyltransferase (Homo sapiens) (UniProt Q14749); conditions: purified enzyme, MTase-Glo SAH luminescence; measured here: GNMT inhibition; at 40 µM; stronger effect = lower value
# Outline: (§1)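 Each enzyme was reacted with SAM and its substrate, with compounds tested once at 40 uM; SAH formed was read by MTase-Glo luminescence.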
# [2] = biological target: Guanidinoacetate N-methyltransferase (Homo sapiens) (UniProt Q14353); conditions: purified enzyme, MTase-Glo SAH luminescence; measured here: GAMT inhibition; at 40 µM; stronger effect = lower value
# Outline: as §1
# [3] = biological target: Histamine N-methyltransferase (Homo sapiens) (UniProt P50135); conditions: purified enzyme, MTase-Glo SAH luminescence; measured here: HNMT inhibition; at 40 µM; stronger effect = lower value
# Outline: as §1
# [4] = biological target: Nicotinamide N-methyltransferase (Homo sapiens) (UniProt P40261); conditions: purified enzyme, MTase-Glo SAH luminescence; measured here: NNMT inhibition; at 40 µM; stronger effect = lower value
# Outline: as §1
# [5] = biological target: Phenylethanolamine N-methyltransferase (Homo sapiens) (UniProt P11086); conditions: purified enzyme, MTase-Glo SAH luminescence; measured here: PNMT inhibition; at 40 µM; stronger effect = lower value
# Outline: as §1
# % is scaled to controls: 0 for no effect and ±100 for the full control effect.
SMILES,"activity change, negative = inhibition [1]","activity change, negative = inhibition [2]","activity change, negative = inhibition [3]","activity change, negative = inhibition [4]","activity change, negative = inhibition [5]"
O=C(c1cccnc1)N1CCN(c2cc(-c3ccccc3)[nH]n2)CC1,-1.78%,-0.991%,1.81%,-0.368%,-0.151%
COc1cc(NC(=O)CCC2CCCN(C(=O)CCN3CCCCO3)C2)cc(OC)c1 (stereo not given),-5.44%,-8.49%,-2.92%,-12.8%,-8.04%
O=S(=O)(c1ccccc1)N1CC(Oc2ccc(-c3noc(C4CC4)n3)cc2)C1,-5.17%,-4.98%,-2.05%,-6.12%,-0.762%
Cc1cccc(NC(=O)Cn2nc3n(C(C)C)c(=O)c4ccc(C(=O)NC5CCCC5)cc4n3c2=O)c1,0.106%,2.97%,-5.44%,6.38%,-4.68%
CC1(C(=O)NC2CCCCC2)Cc2ccccc2C(=O)N1Cc1cccs1 (stereo not given),-3.32%,4.27%,2.84%,4.52%,-4.26%
CC1CCC23COC(=O)C2=CC(O)CC3C1(C)CCC1=CC(=O)OC1O (stereo not given),1.71%,5.8%,8.04%,-6.85%,5.79%
COCCN1CCCC1c1nc(C2CN(S(=O)(=O)c3cccc(OC)c3)C2)no1 (stereo not given),1.5%,2.5%,2.32%,2.84%,5.67%
CC(=O)O[C@@H]1[C@H](O[C@@H]2O[C@H](CO)[C@@H](O)[C@H](O)[C@H]2O)[C@@H](O[C@@H]2O[C@@H](C)[C@H](O)[C@@H](O[C@@H]3O[C@H](CO)[C@@H](O)[C@H](O)[C@H]3O)[C@H]2O)[C@H](OC(=O)[C@]23CCC(C)(C)C[C@H]2C2=CCC4[C@@]5(C)C[C@H](O)[C@H](O[C@@H]6O[C@H](C(=O)O)[C@@H](O)[C@H](O)[C@H]6O)[C@@](C)(C(=O)O)C5CC[C@@]4(C)[C@]2(C)CC3)O[C@@H]1C (stereo not given in full),0.087%,9.68%,10.6%,-1.04%,9.49%
Cc1cnc(-c2cnc(NCCNc3ccc(C#N)cn3)nc2-c2ccc(Cl)cc2Cl)[nH]1,-8.81%,6.04%,-36.4%,-25.5%,-10.5%
CC(C)(O)CCc1ccc(OCc2cc(-c3cccc(OC(F)F)c3)c3ncccc3c2)cc1,5.83%,0.322%,10.2%,-10.6%,4.41%
CCOCCOC1CCN(C(=O)c2nn(C)c3ccccc23)CC1,-3.02%,-5.45%,-1.37%,-2.96%,3.01%
CC(C)CCN1C(=O)CC[C@H]2CN(C(=O)Cn3ccc(=O)[nH]c3=O)CC[C@H]21,-3.63%,-8.94%,-2.99%,-7.88%,-8.04%
CC1CCCN(C(=O)c2coc(COc3cccc(F)c3F)n2)C1 (stereo not given),-6.97%,-9.87%,-1.97%,-11.2%,-11.3%
CCc1ccc(S(=O)(=O)c2nnn3c2nc(NC2CC2)c2cc(Cl)ccc23)cc1,-11.7%,5.83%,-2.94%,-5.35%,-6.48%
COc1ccc2cc3n(c2c1)CC(C)(C(=O)NC1CCCC1)N(Cc1ccccc1C)C3=O (stereo not given),-3.62%,1.88%,-1.63%,-7.95%,-2.3%
COc1ccc(S(=O)(=O)NCC(c2ccco2)N2CCN(c3ccccc3)CC2)cc1 (stereo not given),0.817%,0%,-4.03%,-7.97%,-4.31%
CC1(C(=O)NC2CCCCCCC2)Cn2c(ccc2-c2ccccc2)C(=O)N1CC1CCCO1 (stereo not given),0.676%,0%,3.32%,-12.4%,1.02%
CC(C)c1nc(-c2ccc(OC3CCN(C(=O)c4n[nH]c5ccccc45)C3)cc2)no1 (stereo not given),-3.45%,-2.05%,-1.83%,0.817%,4.13%

# Reference: PubChem BioAssay AID1745853 (National Center for Advancing Translational Sciences (NCATS), 2022)
